Laboratory results as given in the supplement of paper PMC4166925.
± gives the standard deviation of the averaged measurements. Whole data set: some 33,000 sequences, median “E-score (dimensionless, -0.5 to 0.5)” near -0.049, cut for the highest 2% near 0.37. The list shows a part of the results.

What follows are sequences tested on T1, PmTbr T-box DNA-binding domain (GST fusion) (assay: PBM E-score of 8-mer (E-score (dimensionless, -0.5 to 0.5)); Tbr is Tbrain of the sea star Patiria miniata (Pm) or the sea urchin Strongylocentrotus purpuratus (Sp); higher = stronger binding preference; most listed sequences are background and not binding sites). Details: the construct has about 5 more residues each side.
T1 sequence: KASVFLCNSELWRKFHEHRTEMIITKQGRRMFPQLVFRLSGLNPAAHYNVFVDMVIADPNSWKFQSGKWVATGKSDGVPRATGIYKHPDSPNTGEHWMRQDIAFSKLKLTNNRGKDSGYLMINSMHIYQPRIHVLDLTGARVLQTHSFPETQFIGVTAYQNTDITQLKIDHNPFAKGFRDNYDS
How it was run: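 Primer extension turned Universal Agilent oligonucleotide arrays double-stranded. They were incubated with 200 nM protein in PBS (pH 7.5); the protein was a GST-fused Tbr T-box DNA-binding domain expressed in BL21 E. coli at 20 °C and purified on glutathione. Every ungapped 8-mer was scored from the scanned, quantified probe intensities, and the Universal PBM Analysis Suite gave each an enrichment E-score averaged over duplicate arrays.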

Sequence	PBM E-score of 8-mer
TTTATAAA	-0.387 ± 0.13
ACTGGAAC	-0.171 ± 0.018
AAGCCAGT	-0.153 ± 0.051
AGTCGATG	-0.0426 ± 0.053
AAGACGAG	-0.305 ± 0.021
CGATGATC	0.0166 ± 0.039
ATGTCACG	0.262 ± 0.012
AGGGAGGC	-0.108 ± 0.018
ACTCGCGG	0.264 ± 0.031
GAGGCAAA	-0.183 ± 0.099
AGCGTTGA	0.102 ± 0.055
GACGGTGC	0.0989 ± 0.077
GTGGCCAC	0.11 ± 0.086
CGGTTAAA	-0.136 ± 0.049
ACTGCATC	-0.0791 ± 0.01
GAGGTTGA	0.0675 ± 0.0098
CCTAGCGA	0.165 ± 0.037
ATTATAAA	-0.14 ± 0.012
AAGCCCCG	-0.167 ± 0.025
GACTCAGA	-0.213 ± 0.097
AATTTGAC	0.0502 ± 0.13
CAGACCAC	-0.226 ± 0.05
TACCGAGA	-0.129 ± 0.068
TTGAGCAA	-0.0163 ± 0.022
GCAGAGAC	-0.244 ± 0.025

Sequence	PBM E-score of 8-mer
GAGTACGC	0.121 ± 0.057
GAACTGGC	-0.193 ± 0.076
ACTACGCG	0.0285 ± 0.0016
CCGAATCG	0.0234 ± 0.023
AGACCACA	-0.115 ± 0.062
AGAAGAGC	-0.303 ± 0.11
AAACGTCG	-0.0373 ± 0.04
AATTATGT	-0.0893 ± 0.047
AGAGACGA	-0.111 ± 0.03
CCGTGAGC	0.071 ± 0.055
ACCGTTCC	0.0159 ± 0.023
CACCAGTA	0.132 ± 0.018
GCAGTGGC	0.058 ± 0.083
ATAGGGGC	-0.206 ± 0.017
TCAACCGA	-0.0435 ± 0.025
CAGTATGG	-0.291 ± 0.11
AAACTGGA	-0.0699 ± 0.034
CATTACAA	-0.23 ± 0.0056
AAACATAT	0.0457 ± 0.036
CGATCGTC	0.0191 ± 0.09
CCACAGTC	0.00792 ± 0.051
CAGCGTAA	-0.134 ± 0.04
AAGTGCCA	0.41 ± 0.0065
CGAAAAAC	0.0414 ± 0.053
GGATGCAA	-0.138 ± 0.03

Sequence	PBM E-score of 8-mer
GTTGTGGA	0.0762 ± 0.031
CCCGTCCC	-0.196 ± 0.026
CGAGCATA	0.0908 ± 0.038
GTAACTGA	-0.0334 ± 0.026
CAAGGCTC	-0.112 ± 0.03
AGGTAGGA	-0.171 ± 0.0049
GACCTAAA	-0.219 ± 0.037
GAAAGCAA	-0.152 ± 0.019
ACACGATA	0.0238 ± 0.047
TGGTCCAA	-0.272 ± 0.067
CTAGGGAG	-0.241 ± 0.018
CCGTAAGA	-0.234 ± 0.052
CTAGAACA	-0.0837 ± 0.0058
ACCTTAGC	0.252 ± 0.015
GGGCCCCC	-0.299 ± 0.014
AACCCCGA	-0.271 ± 0.03
TGAGCGAA	0.177 ± 0.0095
AGGGTCAT	-0.0736 ± 0.064
AGCGTACG	-0.087 ± 0.0085
GTGTAGTA	0.0477 ± 0.032
CTGGCTGA	-0.152 ± 0.059
AACGTCGT	-0.0814 ± 0.015
AGTCGCAA	0.147 ± 0.026
ATTAATAG	-0.0474 ± 0.045
AAGGCCCT	-0.238 ± 0.054

Sequence	PBM E-score of 8-mer
CCCACCAA	-0.112 ± 0.048
CTCAAAGC	-0.159 ± 0.022
AGTTGGAA	-0.0877 ± 0.14
AATCGGTA	-0.242 ± 0.027
GAATGTGA	0.305 ± 0.018
CATTCGCA	0.3497 ± 0.0027
TCACCTAA	0.383 ± 0.0065
GAGAGCTC	-0.177 ± 0.055
AATCGCGT	0.169 ± 0.035
CTCCACTA	-0.0227 ± 0.0055
AGATCCAG	-0.00199 ± 0.0063
ATCAGTTC	-0.0319 ± 0.0033
CGCCAGCA	0.083 ± 0.035
TATATGCA	-0.143 ± 0.024
GTAGTAGA	-0.22 ± 0.028
CAACAACA	0.226 ± 0.017
GCTGGCGA	0.112 ± 0.016
CAGTGGAC	-0.0736 ± 0.045
ATGCCTCA	-0.142 ± 0.028
CGGAGCAG	-0.0313 ± 0.049
AGTACGAA	-0.0114 ± 0.036
TAGTCGAA	-0.00998 ± 0.08
CGGCGAGA	0.031 ± 0.0096
ATGCCACC	0.266 ± 0.011
CTACATAC	-0.218 ± 0.057

Sequence	PBM E-score of 8-mer
ATTATAGC	-0.0536 ± 0.12
AATGCCAG	-0.228 ± 0.0099
CCTGCATC	-0.1993 ± 0.0017
ACGATACT	0.00195 ± 0.027
ATGCGTAG	-0.0957 ± 0.053
GTCGTTCA	0.19 ± 0.052
GATTTAAC	-0.133 ± 0.12
CTACGGCA	-0.132 ± 0.1
CCGGCCAA	-0.181 ± 0.0093
CTGTGTTA	0.158 ± 0.045
GGTTTCTA	-0.163 ± 0.024
ATTATCCA	-0.0843 ± 0.037
CTGTAGGC	-0.107 ± 0.05
TCTCATCA	0.157 ± 0.0043
ATTAATCG	-0.0134 ± 0.041
GGCTCTGA	-0.0831 ± 0.092
ATCACTTA	0.194 ± 0.042
GTGGGGCA	-0.0565 ± 0.067
CTACACTA	0.133 ± 0.0017
GGTGTAAA	0.418 ± 0.0026
CACGTTAC	0.262 ± 0.0086
CTTACTTA	-0.14 ± 0.026
ACAGGTCG	0.134 ± 0.0071
AACCAACC	-0.0194 ± 0.01
ATAGTTAC	-0.128 ± 0.069

Sequence	PBM E-score of 8-mer
AATTGTGG	0.097 ± 0.045
ATATACCC	-0.245 ± 0.015
CGCGAGCG	0.181 ± 0.056
ATGAGAAT	-0.081 ± 0.051
AAGACACT	0.0303 ± 0.11
AGGTCTGG	0.0461 ± 0.012
CTATACAG	-0.125 ± 0.016
CGCACGAG	0.0871 ± 0.03
AGTTCTTA	-0.0572 ± 0.018
CGGTGCGC	-0.0966 ± 0.03
CACTGCTC	0.115 ± 0.063
CACGTCTA	0.158 ± 0.028
GGTTATAC	0.0979 ± 0.001
AATCTTTC	-0.173 ± 0.04
GCACCCTA	0.133 ± 0.089
AATCCGTA	-0.157 ± 0.0019
AATCACTG	0.0986 ± 0.031
GTATGAAC	-0.118 ± 0.075
ATACACTG	-0.109 ± 0.095
ACACTCGG	0.229 ± 0.0048
GCTGGGAC	-0.0497 ± 0.038
GACATACC	-0.0855 ± 0.077
AGAAAGCT	0.0587 ± 0.053
GGGACTGA	-0.096 ± 0.00096
CTGGATGA	0.000185 ± 0.057

Sequence	PBM E-score of 8-mer
CCGCTAGA	0.0332 ± 0.029
AGAAGGTG	0.403 ± 0.0068
AGTAGGAG	-0.0167 ± 0.02
GGGGTAAA	-0.0507 ± 0.079
AACAGTCC	-0.0238 ± 0.078
AGATCGCA	0.23 ± 0.045
ACGGACCT	-0.224 ± 0.02
GGCGGGCA	-0.112 ± 0.086
AGGAAGCG	-0.085 ± 0.008
AGGCATCA	-0.186 ± 0.053
CGAAGAGA	-0.227 ± 0.028
ACGCCCAG	0.114 ± 0.025
CCGCACCC	0.221 ± 0.074
CGCCGACC	0.0208 ± 0.052
TCAGATAA	-0.0868 ± 0.048
AGTCCCCG	-0.176 ± 0.034
AATTGATC	0.104 ± 0.038
AGTGAGAT	0.287 ± 0.016
CATAAGGG	-0.145 ± 0.052
CCGCTGGC	-0.0268 ± 0.024
GAAACACC	0.297 ± 0.0084
GCCCACTA	-0.0431 ± 0.011
